# The supplement of paper PMC11348887
# Structures can show the parent of a compound that is named as a salt. This is one part of the list. Rule as the data show it: active = -2 or less and inactive = the rest. Repeats are few or missing, and single values can be far off.
# System: hPSC-derived cortical neurons (WA09)
# Assay: nuclei number (viability) z-score; higher = more surviving cells
# Details: 5 µM; treatment: days 7-14 after plating, readout day 21
# 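Also: nuclei counted from DAPI counterstain by automated high-content image analysis, four fields per well at ×20 in 384-well plates, with sequential b-score then z-score normalization.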
row,SMILES,nuclei number (z-score)
1,CC1=NN(c2ccc(C)c(C)c2)C(=O)/C1=N\Nc1cccc(-c2cccc(C(=O)O)c2)c1O [Eltrombopag Olamine],inactive: 0.213
2,CC1=NN(c2ccc(C)c(C)c2)C(=O)/C1=N\Nc1cccc(-c2cccc(C(=O)O)c2)c1O [Eltrombopag],inactive: 0.407
3,CCn1c(=O)c2c(nc(/C=C/c3ccc(OC)c(OC)c3)n2C)n(CC)c1=O [Istradefylline],inactive: -0.557
4,Cc1ccc(OCC(O)C(C)NC(C)C)c2c1CCC2 (stereo not given),inactive: -0.346
5,Cc1cc(C)nc(NS(=O)(=O)c2ccc(N)cc2)n1 [Sulfamethazine],inactive: 1.04
6,CC1(C)O[C@@H]2C[C@H]3[C@@H]4C[C@H](F)C5=CC(=O)C=C[C@]5(C)[C@@]4(F)[C@@H](O)C[C@]3(C)[C@]2(C(=O)CO)O1 [Fluocinolone Acetonide],inactive: 0.371
7,COC(=O)N/N=C/c1c[n+]([O-])c2ccccc2[n+]1[O-] [Carbadox],inactive: 1.55
8,CC(C)(Oc1ccc(Cl)cc1)C(=O)OCCOC(=O)c1cccnc1 [Etofibrate],inactive: -0.728
9,CN(C(=O)CN(CCO)CC(=O)N(C)C(C)(C)Cc1ccccc1)C(C)(C)Cc1ccccc1 [Oxethazaine],inactive: -0.974
10,CN1CCN2c3ncccc3Cc3ccccc3C2C1 (stereo not given) [Mirtazapine],inactive: -0.19
11,CC[C@H](NC(=O)[C@H](C)NC)C(=O)N1C[C@@H](O)C[C@H]1Cc1c(-c2[nH]c3cc(F)ccc3c2C[C@@H]2C[C@H](O)CN2C(=O)[C@H](CC)NC(=O)[C@H](C)NC)[nH]c2cc(F)ccc12 [Birinapant],inactive: 0.461
12,CC(C)N(CC[C@H](c1ccccc1)c1cc(CO)ccc1O)C(C)C,inactive: 0.968
13,NC(N)=NCCCC(N)C(=O)NCC(=O)NC(CC(=O)O)C(=O)O (stereo not drawn) [RGD (Arg-Gly-Asp) Peptides],inactive: 0.883
14,CC(C)[C@H](N)C(=O)OCCOCn1cnc2c(=O)nc(N)[nH]c21 [Valaciclovir HCl],inactive: 1.62
15,CCCCCCNC(=O)n1cc(F)c(=O)[nH]c1=O [Carmofur],inactive: -0.133
16,CCC[C@@H]1C[C@@H](C(=O)N[C@@H]([C@H]2O[C@H](SC)[C@H](OP(=O)(O)O)[C@@H](O)[C@H]2O)[C@H](C)Cl)N(C)C1 [Clindamycin Phosphate],inactive: -0.0938
17,CC(O)c1cc(C(=O)N[C@@H](C)Cn2ccc(-c3ccc(C#N)c(Cl)c3)n2)n[nH]1 (stereo not given in full),inactive: 1.17
18,COC(=O)C1=CO[C@@H](O)[C@@H]2C(CO)=CC[C@H]12 [Genipin],inactive: 0.206
19,Cc1nc(C(=O)NCC(=O)O)c(O)c2ccc(Oc3ccccc3)cc12,inactive: 3.61
20,COc1cccc2c1C(=O)c1c(O)c3c(c(O)c1C2=O)C[C@@](O)(C(=O)CO)C[C@@H]3O[C@H]1C[C@H](N)[C@H](O[C@@H]2CCCCO2)[C@H](C)O1 [Pirarubicin],active: -7.65
21,COC(=O)N[C@@H](C)CNc1nccc(-c2cn(C(C)C)nc2-c2cc(Cl)cc(NS(C)(=O)=O)c2F)n1,inactive: 1
22,CC[C@@H]1C(=O)N(C)c2cnc(Nc3ccc(C(=O)N[C@H]4CC[C@H](N5CCN(CC6CC6)CC5)CC4)cc3OC)nc2N1C(C)C [Volasertib (BI 6727)],active: -4.53
23,CCc1cccc(CC)c1NC(=O)N1Cc2[nH]nc(NC(=O)c3ccc(N4CCN(C)CC4)cc3)c2C1,inactive: 1.1

row,SMILES,nuclei number (z-score)
1,CC#C[C@]1(O)CC[C@H]2[C@@H]3CCC4=CC(=O)CCC4=C3[C@@H](c3ccc(N(C)C)cc3)C[C@@]21C [Mifepristone],active: -6.88
2,COc1ccc(Cl)cc1C(=O)NCCc1ccc(S(=O)(=O)NC(=O)NC2CCCCC2)cc1 [Glyburide],inactive: 0.707
3,Nc1nc(=O)n([C@@H]2CS[C@H](CO)O2)cc1F [Emtricitabine],inactive: -0.355
4,CCN(CC)CCOCCOC(=O)C1(c2ccccc2)CCCC1 [Pentoxyverine Citrate],inactive: -0.367
5,CC#CCn1c(N2CCC[C@@H](N)C2)nc2c1c(=O)n(Cc1nc(C)c3ccccc3n1)c(=O)n2C [Linagliptin],inactive: 1.47
6,CCN(CC)C(=O)C1(c2ccccc2)CC1CN (stereo not given) [Milnacipran HCl],inactive: 0.34
7,Cc1cc(C(C)(C)C)cc(C)c1CC1=NCCN1 [Xylometazoline HCl],inactive: -0.128
8,COc1cc(NC(=O)c2ccccn2)ccc1Cl,inactive: 1.2
9,c1ccc(Cn2c(-c3ccc(OC[C@H](C4CCNCC4)n4c(-c5ccccc5)nc5ccccc54)cc3)nc3ccccc32)cc1 [Deltarasin],active: -5.6
10,COc1cc2nc(N3CCN(C(=O)C4COc5ccccc5O4)CC3)nc(N)c2cc1OC (stereo not given) [Doxazosin Mesylate],inactive: 2.07
11,N#C/C(=C(/N)Sc1ccc(N)cc1)c1ccccc1C(F)(F)F,inactive: 1.07
12,NC[C@@](O)(c1ccc(Cl)cc1)c1ccc(-c2cn[nH]c2)cc1,inactive: 3.4
13,O=c1c(O)c(-c2ccc(O)cc2)oc2cc(O)cc(O)c12 [Kaempferol],inactive: -0.811
14,CNC(=O)c1ccc(N2C(=S)N(c3ccc(C#N)c(C(F)(F)F)c3)C(=O)C2(C)C)cc1F [Enzalutamide (MDV3100)],inactive: 1.58
15,CCCc1ccc(OCC(=O)N(Cc2nc(-c3cccnc3)no2)C(C)C)cc1,inactive: 0.654
16,COc1cc(OC)c(NC(=O)Nc2cc(C)on2)cc1Cl,inactive: 0.198
17,CC(C)(C)c1cc(NC(=O)Nc2ccc(-c3cn4c(n3)sc3cc(OCCN5CCOCC5)ccc34)cc2)no1 [Quizartinib (AC220)],active: -2.92
18,CC1(C)Cc2c(-c3ccccc3)c(-c3ccc(Cl)cc3)c(CC(=O)O)n2C1 [Licofelone],inactive: 0.121
19,Nc1nc2c(cnn2CCc2ccccc2)c2nc(-c3ccco3)nn12,inactive: 0.804
20,Cc1c(N)c(=O)n(-c2ccccc2)n1C [4-Aminoantipyrine],inactive: 0.795
21,O=C(/C=C/c1cccc(S(=O)(=O)Nc2ccccc2)c1)NO [Belinostat (PXD101)],active: -4.07
22,NC[C@H]1O[C@H](O[C@H]2[C@H](O)[C@@H](O[C@H]3O[C@H](CO)[C@@H](O)[C@H](N)[C@H]3O)[C@H](N)C[C@@H]2N)[C@H](N)C[C@@H]1O [Tobramycin],inactive: -0.675
